According to the supplement of paper PMC12632987:
The full ranking holds about 2,300 sequences; the median of “median log2 fold change of GCK-ALFA target abundance (FLAG IP / Myc IP barcode read proportion)” is about 0.095, and the lowest 2% start at about -0.47. Some of the results follow.

B1: LC3A_free_8_2521 (protein)
chain: MNQEFVDKAVEILDELEEKLVAYLKSKGASELEILEAELLIGSIIAEVISLENESPEEILKAIEDGLKELVEELSEYKEEVTELADEALKKIKEAKKKLE
B2: LC3A_3_1678 (protein)
chain: MEKLVEEALKTIKETIKDEEVQKLFEEAVKLLAERGLEEQIKALAELVKEMKDLPVEEQLEFAKYLLEVVKKAKGSREEAAKRVSEEIRTIKNDIEIEEL
B3: LC3A_28_1233 (protein)
chain: MTPEEIAQRLIDEAKKKIAAGEKVIVIKITAEEAKPENVDAIVAAIKEIAALANAAGGVAIIIDLDSKVDEESRNKIIDAAEEAEKEYPNVTIIIAISDD
B4: LC3A_free_39_2248 (protein)
chain: SAEELAAARAALAAVAATLDPEAQAAAAELAAALADDPEALRIVTEGLRRLQAEGGDVLAFLQELLALVREAQAAGLSPEELAERLRELAEDFLNLLPLD
B5: LC3A_28_641 (protein)
chain: MEIEKKLEEALKKAKEAREKGEATVIELTLDGNATQEDVEKVIKALEEIAKILESVPGSAIIINVTGNVKQEHIDKLADAAEEIEKKYPNVTVILALEEK
B6: LC3A_28_1264 (protein)
chain: AATDAAIAAFNAAVDAALAAGEAATITLKVSADATQADIDKINEALKANAAKLASIPGQSIIIDVAGGVAQENIDKLAEAAEEIEEKTKNVTVIIALDEN
B7: LC3A_127_217 (protein)
chain: LLEEALKKLEEAEKLLLELVEDDSIDREEALKKAKKLLKEALKLAKKAGAPEEVLKDLEEAEELVEEMFELDEEERKEAAERASLLVDGAIIEIESILLK
B8: LC3A_28_1280 (protein)
chain: SEIEKEIEAALKKAEEARKKGEPVVVTIKVPGNATQEEIEKVIEGLEKIAEILKDIPGQAIIIDVDSGVKQEHIDKLLDKAEEIEKKYPNVTVIIALDED
B9: LC3A_28_894 (protein)
chain: SKELEKAEKALEEARAALAAGSTEPLVLEVTAPSTEEDTEKFLELLEEIAEVGSQRPGVSIVIDVPESVSQENIDKVIDKAEELEEKYPNVTIIIALPEN
B10: LC3A_3_1565 (protein)
chain: LEEERERVLKALREAGHSEEVLKAVNEALEKLLEKGYEEAAKTFIEEMLELVDAPDEILLDAANEVLELIETSDLDEETLTEEIKEIARLAKIEAEMDKL
B11: LC3A_3_1567 (protein)
chain: SEELIKEMVEKLKEAGFSEEVIEAAREALKALAAKGAEEAAEIVLETLLKLKDAPEELKLDFLADVKALVETSKASLEELKKQIEELATTYLNESEIEEL
B12: LC3A_3_1578 (protein)
chain: SEERIEEAVERLRAAGLSEEVIEAAREVLEALLERGWEEAAELVVEGLLRLADAPEELLLEALEELLEVAEDESLSEEEALERIKEILSTAEAESEIIEL
B13: LC3A_free_8_2491 (protein)
chain: KSQELAKLASDELDKLEEELTKKAKELGVSPLDILELSLEIGSTIAEIYTKSDESPQAILDTLKEGLKRIIELAKEISEELAKKAEELSKEVLKKVEEKI
B14: LC3A_free_26_2164 (protein)
chain: EEFVNIADIDEALDLLEEALALLPPDDPRLAELRRLLEEAIRLVEKETLESLERARELLLEARALVEADPSLSPETRERLLALLDEAIAHVESNIEILKS
B15: LC3A_3_1448 (protein)
chain: AEELKEKGLKLLEERGASEETIEAAKELFDELIKKGYLESMKVVLEFLEKVKNASDEFLLEMFEDLLELVKTTDASPEEMTKLIKEELNAFESELEIEEL
B16: LC3A_free_39_2266 (protein)
chain: SMEEKKKAMEELEKIAEKFDEETREAILELAELLKDNVEALKKLAELAEEALKKGEKTVKILGEIAKEAVERIKAGEDKEKVAEEFFKLAKNAIEIEEID
B17: LC3A_3_1492 (protein)
chain: MPELLERVRAELERAGASPEEIARVLAAAEELLARGYEETVEKIIELIRKYKDLSPRDLVAAALTTADIAIEENLSEEEAVKKAEEIFEDVAEIEALDEE
B18: LC3A_28_981 (protein)
chain: NAMEKELEEKLEEARKYAEAGEPAVITIKVPGTTNEEQAEKIIETLEEIAEILKNIKGSAIIIDIDKGVKEELKNRLIDKAEEIEEKYPNVTVIIALEEE
B19: LC3A_28_1253 (protein)
chain: MEVEESIKKALAEAEAAVAKGEEALVTIKVPAGITEEEVEKVIEAMEEIAEKTKSLPKTTILIDVEAGVPQEAIDKLADKGEELEKKYPHLTVILALEEE
B20: LC3A_3_1386 (protein)
chain: MEEKREEALERLREAGHSEEVIEAARRALEALIEKGYEEAYETLIELLDELIHLPDELLLELFEEVLELIETEDIDEEELTERIKEIASVFRNESEIEEL
B21: LC3A_28_912 (protein)
chain: SAIEEATAAAIAQIRADAAAGEPAVVTLDAEHEDVEEAERLTREALERLEEEMLKHDGVTLIVDVPGHNAEAITRVADEADERLRERNPSNHIIVALDEE
B22: LC3A_3_1811 (protein)
chain: MEERLERALEELRAAGASEETLEAVREAVELLLEKGYEEAAETFLELMLELKHLPSELLLEMAEEVLELVKTSDLSEEEITEEIKRIARTVRHEGEIIEL
B23: LC3A_141_383 (protein)
chain: MKKEFEMEATKETADEVFKFMEEVEKETLEMIKESGGKPVKMKVKITATNEKTGEVVEKEEEYIVTEENADLVADGIEIEVLSLLDRVGGKVKVKVTLES
B24: LC3A_free_46_2321 (protein)
chain: YKAEIDIDIDGVNEEDAKKLVEELKKEIKKIAEKYGLKVEIEVEIEKNEDGTYFVRINVTLEGENEEDLKKAVNEIIEKSEELAEKYGASVVISYEIEKK
B25: LC3A_free_46_2404 (protein)
chain: YRGTILIDALAESREKAEEFAKEIEKAAKEIAKKYGAEVEIKVEIEELPDGTVFVRIEIVVKAETEEKLKKFVNDLIEEIDKIAEKLGVSYIISYEIEKE
B26: LC3A_28_1334 (protein)
chain: STADKIIAEANAQIKAVAASGKPSVIVVDIPGSMTAEEARRVATAVKEAAKKEKLPKGTAIIFSFDASVSQEVIDVVADEAEELEKEVPGITVIIALDEN
B27: LC3A_3_1464 (protein)
chain: AEELLKEAREILEKQGASEETIKAAEELLEALAKKGYEKAMETLVKKLKEMKDVSSEILLATLKDLLHIVKTQDLDEEEIVKEIEREFSAAKAEQEIIEL
B28: LC3A_17_578 (protein)
chain: SAEVKALYERALKVMEKAAKFAAKHDAAAAAKIKALIAEAKAAAKTGDDREILETIARLMDEVANILDSLEPLDPEEASLLSMEADGVAIEAESLLLKLE
B29: LC3A_3_1806 (protein)
chain: AEERIEALLARLRAAGASPETIEAARRALTLLAERGYEEALETLIEELERLLDAPDELLLDLLERVLEFLETNDASEEEVKEFIEEEARLAENESEIIEL

biological target: MAP1LC3A, Q9H492; experiment: median log2 fold change of GCK-ALFA target abundance (FLAG IP / Myc IP barcode read proportion) (log2 ratio); each designed protein is fused to an ALFA-tag nanobody in HEK293 cells to bring the named protein to FLAG-tagged glucokinase (GCK); Myc marks an untargeted standard; higher = target protein stabilised (more abundant); details: target protein: 3xFLAG-MCP-GCK-ALFA reporter; HEK293 landing pad (RPLP)
How it was run: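 The readout is target abundance, the per-binder median log2 ratio of FLAG to Myc barcode read proportions. It came from HEK293 landing-pad cells carrying a recombined ALFA-nanobody-fused binder library, induced with 2 μg mL^−1 doxycycline and transfected with a plasmid for a FLAG-tagged target and a Myc-tagged standard. After 48 h, lysates were immunoprecipitated with anti-FLAG and anti-Myc, and circular RNA barcodes were reverse transcribed, amplified and sequenced. Each barcode needed a proportion of at least 10^−7 in both replicates and each binder at least 3 barcodes per replicate, a pseudocount of 10^−6 was added, and the replicates were pooled.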

Binder	median log2 fold change
B1	-0.131
B2	0.242
B3	0.277
B4	0.192
B5	0.16
B6	0.263
B7	-0.0169
B8	0.0554
B9	-0.226
B10	0.246
B11	0.339
B12	-0.0331
B13	0.123
B14	0.0771
B15	0.129
B16	0.265
B17	0.123
B18	-0.14
B19	0.203
B20	0.167
B21	0.318
B22	0.225
B23	0.328
B24	0.328
B25	0.027
B26	-0.0393
B27	0.332
B28	-0.0942
B29	0.0118
